The supplement of paper PMC3334620
Whole data set: some 33,000 sequences, median “E-score (-0.5 to 0.5)” near -0.012, cut for the highest 2% near 0.27. The list shows a part of the results.

biological target: T1, Vhr1 (UniProt P40522); assay: PBM E-score (8-mer binding enrichment) (E-score (-0.5 to 0.5)); higher = stronger / more preferred TF binding; most listed sequences are background and not binding sites; conditions: protein concentration: 200 nM; construct: GST-full length
T1 sequence: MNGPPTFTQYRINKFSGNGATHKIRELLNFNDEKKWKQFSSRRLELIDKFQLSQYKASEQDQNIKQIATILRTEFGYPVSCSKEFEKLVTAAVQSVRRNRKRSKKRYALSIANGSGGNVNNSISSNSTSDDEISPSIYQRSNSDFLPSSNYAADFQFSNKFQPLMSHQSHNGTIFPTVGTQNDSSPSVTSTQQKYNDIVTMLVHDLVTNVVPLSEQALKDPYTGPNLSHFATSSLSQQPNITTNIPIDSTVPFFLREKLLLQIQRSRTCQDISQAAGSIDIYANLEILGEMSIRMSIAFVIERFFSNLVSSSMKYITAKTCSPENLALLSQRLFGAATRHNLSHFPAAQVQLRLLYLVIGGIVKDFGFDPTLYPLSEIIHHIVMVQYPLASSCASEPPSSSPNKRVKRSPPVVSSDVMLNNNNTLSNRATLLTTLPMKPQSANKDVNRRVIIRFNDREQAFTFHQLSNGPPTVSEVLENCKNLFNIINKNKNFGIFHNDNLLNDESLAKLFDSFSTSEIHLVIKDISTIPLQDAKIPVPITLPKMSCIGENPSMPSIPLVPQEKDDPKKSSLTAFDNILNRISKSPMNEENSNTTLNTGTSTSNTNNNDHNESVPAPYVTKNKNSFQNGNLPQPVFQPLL
How it was run: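 Full-length yeast transcription factors or their DNA-binding domains, GST-tagged and expressed with PURExpress, were applied at about 100-200 nM to universal all-10-mer Agilent arrays. These arrays had been made double-stranded by primer extension on fresh or once-stripped slides. Detection used fluorescent anti-GST, normalisation used masliner, and E-scores for ungapped eight-base words pooled with reverse complements came from the Universal PBM Analysis Suite.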

Row | Sequence | PBM E-score
1 | AGGCGCCT | 0.00322
2 | ATGAGAAG | -0.0895
3 | ACGGGGAT | 0.03
4 | AACGAATA | -0.129
5 | CACCCTCG | 0.0603
6 | GCAGTAGC | -0.238
7 | TTGGAAAA | -0.27
8 | AGGCAATA | -0.0641
9 | CTTGGGTC | 0.0407
10 | GAGGTCCA | 0.00961
11 | CAAACTGG | 0.0525
12 | CATATCAA | 0.278
13 | GGCCCCAA | -0.251
14 | CGCTAGGC | -0.19
15 | AAGATAGA | -0.104
16 | CAGGTATA | 0.0578
17 | ACTTGCGG | -0.185
18 | ACCAGCTG | 0.0657
19 | TACGTACA | 0.127
20 | AAGTCAGG | 0.201
21 | CCTTATCG | -0.0198
22 | GCTTCGCC | -0.349
23 | AGGTACGC | 0.164
24 | AGCCGAAT | 0.142
25 | AACGCTGG | 0.0312

Row | Sequence | PBM E-score
26 | ACGTATTC | 0.036
27 | CCATAGGA | -0.0888
28 | TCCAGGAA | 0.00501
29 | AAATTCAG | -0.0308
30 | CACCCAAA | 0.136
31 | ACCAATAA | -0.0166
32 | CTGCGTAA | -0.0215
33 | CTTTTGCA | -0.101
34 | TCCCCTAA | -0.0509
35 | TCGCAAGA | -0.036
36 | CTTGACGC | -0.183
37 | GTCGGAGA | 0.0527
38 | ACTGCTGC | 0.0846
39 | ATCCAGAG | 0.113
40 | GTGCAAAA | -0.15
41 | AGTCAGCG | 0.347
42 | GAACCACC | 0.225
43 | AGGAGACC | 0.0147
44 | CGTGTGCC | -0.0318
45 | GCAGCCCC | 0.0417
46 | ATGGCGCG | -0.108
47 | CCGTGCGC | 0.0682
48 | AACGTCGG | -0.0981
49 | ATAGCTTA | -0.0267
50 | CATGATGC | 0.0907

Row | Sequence | PBM E-score
51 | ATGGCTAG | 0.0908
52 | AGATGCAT | 0.116
53 | CAACTCAG | 0.0745
54 | ACCTTACG | -0.114
55 | GGATATTA | 0.257
56 | CACGCGGG | 0.00188
57 | CGAGGCTC | -0.0648
58 | CTAGCGGA | -0.199
59 | GTAAACCA | -0.121
60 | ATTCGTAG | -0.0281
61 | CTCCCCAC | 0.0213
62 | AGTAATGC | -0.0376
63 | AACCGAGA | 0.0843
64 | ATCCTCTA | -0.204
65 | GGTAAGAA | -0.0756
66 | ATTTTCAG | -0.144
67 | TCGACAAA | -0.0716
68 | GCTAGCCC | -0.273
69 | GACTATTA | 0.0423
70 | TTTAAAAA | -0.185
71 | CATGTAGG | 0.0664
72 | ATGGATAA | 0.182
73 | AGGGAATC | 0.142
74 | ATAACGAT | -0.00563
75 | ATGGCAGC | 0.251

Row | Sequence | PBM E-score
76 | AGGAAAAC | -0.0654
77 | CTCACTGC | -0.102
78 | CACGGAGG | -0.114
79 | CATACGGG | -0.183
80 | CAAGTATA | -0.288
81 | AGGGAAGA | -0.308
82 | AGCCGTCG | 0.103
83 | AAATACTG | -0.0503
84 | ACTGCGCG | -0.00939
85 | AGGTGAGA | -0.124
86 | CTAGTACA | 0.119
87 | GGCTATTA | 0.0345
88 | AGAGCCGA | 0.0913
89 | AGCTTTCC | -0.227
90 | ATCCGAAC | 0.0441
91 | ACCACGAA | 0.0839
92 | ACGTGATG | 0.00697
93 | AAACAGCG | 0.0426
94 | GTGGACGA | -0.0286
95 | CGTACCAA | 0.0513
96 | CTCTGTGA | -0.0592
97 | AAAATGAC | -0.0335
98 | ACCCTCGA | -0.0541
99 | GTACAAGA | 0.0464
100 | AGCTGTTA | 0.00687

Row | Sequence | PBM E-score
101 | AGAACCCT | -0.14
102 | CAAATAGA | 0.0696
103 | CTCCTAGA | -0.058
104 | ATTGAGCA | 0.0806
105 | AAGCTGTA | 0.0468
106 | AACCTAGC | -0.0285
107 | CCGTTGGA | -0.165
108 | AGAGAGAG | -0.0525
109 | GATTGTCA | -0.0917
110 | ATAACCCA | 0.0893
111 | TCCGACGA | -0.0551
112 | CAATTCCC | -0.0287
113 | CATTGCAC | 0.174
114 | TGCGTCAA | -0.227
115 | ACATTAAT | 0.168
116 | CTTCAATC | -0.0571
117 | CGGAGGGC | -0.173
118 | CGCTGGAC | -0.0176
119 | AGTTTCAC | -0.0487
120 | ATAATCGA | 0.0552
121 | CAGTTGGG | 0.173
122 | AGAGTGGG | 0.0768
123 | ACTTCCGC | 0.0208
124 | CAGTTCCC | 0.0685
125 | ACGGCTGC | 0.0519

Row | Sequence | PBM E-score
126 | CTCAGGAG | 0.193
127 | CAGACTAG | 0.0661
128 | CCATCGAA | 0.119
129 | CACCAGTG | 0.0505
130 | ACATGACT | 0.446
131 | CGCAGTCA | 0.363
132 | ACCTGTGG | -0.13
133 | CTATTGCA | -0.0654
134 | ACGCATAC | 0.0004
135 | ACCGTCGC | 0.0711
136 | GATTCAAA | -0.0717
137 | CATCCCAC | 0.114
138 | GATAGTGC | 0.0119
139 | ACTAATGG | 0.0879
140 | CGGCGCCA | -0.116
141 | ACGCCCCG | 0.00684
142 | CCTGACAC | 0.188
143 | CAGAGCCG | -0.0339
144 | ATACCTAG | 0.129
145 | AAGAGGAG | 0.0429
146 | AGTGTGTA | 0.238
147 | GAGTTATC | 0.118
148 | CACCTTTA | -0.174
149 | GTAATTGA | 0.0141
150 | GATTTACC | -0.0729

Row | Sequence | PBM E-score
151 | ATGGCAAT | 0.0411
152 | CTAGCTAC | -0.0816
153 | GACCGGGA | 0.186
154 | AATGTCCA | -0.157
155 | CAAATTCA | -0.0318
156 | AACAAGCT | -0.00349
157 | GTTTGGGA | 0.0203
158 | CCACCCGC | 0.142
159 | ACACCACT | 0.21
160 | AGCACTGG | -0.0591
161 | CCACTGAG | -0.00167
162 | GATCCAAA | 0.00716
163 | TACTACTA | 0.208
164 | AGCTCACC | 0.104
165 | AGTCCGAG | 0.156
166 | ACAACCAT | 0.19
167 | ACACTCGT | -0.0745
168 | CTCATCTA | -0.0343
169 | TACCGGGA | 0.126
170 | AGTACAGA | 0.137
171 | AACATTAA | -0.0426
172 | CGAATCAG | 0.344
